# Data reported in article PMC9911399, “Two distinct binding modes provide the RNA-binding protein RbFox with extraordinary sequence specificity”.
# Where a chain is given by its changes, count along the chain named. The list shows a part of the results.
# T1: RBFOX1 RRM RbFoxmut (Fox-RRM*) (Homo sapiens, UniProt Q9NWB1 109-208, R118D;E147R;N151S;E152T)
# T1 sequence: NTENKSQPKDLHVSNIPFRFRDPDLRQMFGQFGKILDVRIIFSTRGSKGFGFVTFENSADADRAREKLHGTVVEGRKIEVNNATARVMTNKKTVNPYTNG
# B1: UGCGGGC (DNA:RNA)
# RNA: GGGAGACCGGAAUUCAGAUUGUCCUGCGGGCUUAAAUCCCGUCGUAGCCACCA
# DNA 1: CAATCTGAATTCCGGTCTCCC
# DNA 2: TGGTGGCTACGACGGGATT
# B2: GCCUACA (DNA:RNA)
# RNA: B1 RNA with U25G, G26C, G28U, G29A, G30C, C31A
# DNA 1: CAATCTGAATTCCGGTCTCCC
# DNA 2: TGGTGGCTACGACGGGATT
# B3: CAAUUUU (DNA:RNA)
# RNA: GGGAGACCGGAAUUCAGAUUGUCCCAAUUUUUUAAAUCCCGUCGUAGCCACCA
# DNA 1: CAATCTGAATTCCGGTCTCCC
# DNA 2: TGGTGGCTACGACGGGATT
# B4: UGAUGAU (DNA:RNA)
# RNA: B3 RNA with C25U, A26G, U29G, U30A
# DNA 1: CAATCTGAATTCCGGTCTCCC
# DNA 2: TGGTGGCTACGACGGGATT
# B5: AGUCGUC (DNA:RNA)
# RNA: B1 RNA with U25A, C27U, G28C, G30U
# DNA 1: CAATCTGAATTCCGGTCTCCC
# DNA 2: TGGTGGCTACGACGGGATT
# B6: UAUAGCU (DNA:RNA)
# RNA: B3 RNA with C25U, A27U, U28A, U29G, U30C
# DNA 1: CAATCTGAATTCCGGTCTCCC
# DNA 2: TGGTGGCTACGACGGGATT
# B7: UGACUAA (DNA:RNA)
# RNA: B3 RNA with C25U, A26G, U28C, U30A, U31A
# DNA 1: CAATCTGAATTCCGGTCTCCC
# DNA 2: TGGTGGCTACGACGGGATT
# B8: GCACUUC (DNA:RNA)
# RNA: B3 RNA with C25G, A26C, U28C, U31C
# DNA 1: CAATCTGAATTCCGGTCTCCC
# DNA 2: TGGTGGCTACGACGGGATT
# B9: AGCACAU (DNA:RNA)
# RNA: B1 RNA with U25A, G28A, G29C, G30A, C31U
# DNA 1: CAATCTGAATTCCGGTCTCCC
# DNA 2: TGGTGGCTACGACGGGATT
# B10: CCUGAAA (DNA:RNA)
# RNA: B3 RNA with A26C, A27U, U28G, U29A, U30A, U31A
# DNA 1: CAATCTGAATTCCGGTCTCCC
# DNA 2: TGGTGGCTACGACGGGATT
# B11: ACUUUAU (DNA:RNA)
# RNA: B3 RNA with C25A, A26C, A27U, U30A
# DNA 1: CAATCTGAATTCCGGTCTCCC
# DNA 2: TGGTGGCTACGACGGGATT
# B12: CCCUGUU (DNA:RNA)
# RNA: B3 RNA with A26C, A27C, U29G
# DNA 1: CAATCTGAATTCCGGTCTCCC
# DNA 2: TGGTGGCTACGACGGGATT
# B13: AACUGAU (DNA:RNA)
# RNA: B3 RNA with C25A, A27C, U29G, U30A
# DNA 1: CAATCTGAATTCCGGTCTCCC
# DNA 2: TGGTGGCTACGACGGGATT
# B14: AAUUCUC (DNA:RNA)
# RNA: B3 RNA with C25A, A27U, U29C, U31C
# DNA 1: CAATCTGAATTCCGGTCTCCC
# DNA 2: TGGTGGCTACGACGGGATT
# B15: GCUCUUU (DNA:RNA)
# RNA: B3 RNA with C25G, A26C, A27U, U28C
# DNA 1: CAATCTGAATTCCGGTCTCCC
# DNA 2: TGGTGGCTACGACGGGATT
# B16: GACUAGU (DNA:RNA)
# RNA: B3 RNA with C25G, A27C, U29A, U30G
# DNA 1: CAATCTGAATTCCGGTCTCCC
# DNA 2: TGGTGGCTACGACGGGATT
# B17: AGUGGUU (DNA:RNA)
# RNA: B1 RNA with U25A, C27U, G30U, C31U
# DNA 1: CAATCTGAATTCCGGTCTCCC
# DNA 2: TGGTGGCTACGACGGGATT
# B18: AAAGUCG (DNA:RNA)
# RNA: B3 RNA with C25A, U28G, U30C, U31G
# DNA 1: CAATCTGAATTCCGGTCTCCC
# DNA 2: TGGTGGCTACGACGGGATT
# B19: AUCCGAC (DNA:RNA)
# RNA: B1 RNA with U25A, G26U, G28C, G30A
# DNA 1: CAATCTGAATTCCGGTCTCCC
# DNA 2: TGGTGGCTACGACGGGATT
# B20: GGAACUG (DNA:RNA)
# RNA: B3 RNA with C25G, A26G, U28A, U29C, U31G
# DNA 1: CAATCTGAATTCCGGTCTCCC
# DNA 2: TGGTGGCTACGACGGGATT
# B21: GAAACCU (DNA:RNA)
# RNA: B3 RNA with C25G, U28A, U29C, U30C
# DNA 1: CAATCTGAATTCCGGTCTCCC
# DNA 2: TGGTGGCTACGACGGGATT
# B22: UAGCAGA (DNA:RNA)
# RNA: B1 RNA with G26A, C27G, G28C, G29A, C31A
# DNA 1: CAATCTGAATTCCGGTCTCCC
# DNA 2: TGGTGGCTACGACGGGATT
# B23: GGAUUGC (DNA:RNA)
# RNA: B3 RNA with C25G, A26G, U30G, U31C
# DNA 1: CAATCTGAATTCCGGTCTCCC
# DNA 2: TGGTGGCTACGACGGGATT
# B24: UCGCAGG (DNA:RNA)
# RNA: B1 RNA with G26C, C27G, G28C, G29A, C31G
# DNA 1: CAATCTGAATTCCGGTCTCCC
# DNA 2: TGGTGGCTACGACGGGATT
# B25: AUGACAG (DNA:RNA)
# RNA: GGGAGACCGGAAUUCAGAUUGUCCAUGACAGUUAAAUCCCGUCGUAGCCACCA
# DNA 1: CAATCTGAATTCCGGTCTCCC
# DNA 2: TGGTGGCTACGACGGGATT
# B26: AAAUGCC (DNA:RNA)
# RNA: B3 RNA with C25A, U29G, U30C, U31C
# DNA 1: CAATCTGAATTCCGGTCTCCC
# DNA 2: TGGTGGCTACGACGGGATT
# B27: UAUCAGA (DNA:RNA)
# RNA: B1 RNA with G26A, C27U, G28C, G29A, C31A
# DNA 1: CAATCTGAATTCCGGTCTCCC
# DNA 2: TGGTGGCTACGACGGGATT
# B28: CUCAUAC (DNA:RNA)
# RNA: B25 RNA with A25C, G27C, C29U, G31C
# DNA 1: CAATCTGAATTCCGGTCTCCC
# DNA 2: TGGTGGCTACGACGGGATT
# B29: AAACAGA (DNA:RNA)
# RNA: B3 RNA with C25A, U28C, U29A, U30G, U31A
# DNA 1: CAATCTGAATTCCGGTCTCCC
# DNA 2: TGGTGGCTACGACGGGATT
# B30: GUCUUGU (DNA:RNA)
# RNA: B3 RNA with C25G, A26U, A27C, U30G
# DNA 1: CAATCTGAATTCCGGTCTCCC
# DNA 2: TGGTGGCTACGACGGGATT
# B31: AUCUGCG (DNA:RNA)
# RNA: B25 RNA with G27C, A28U, C29G, A30C
# DNA 1: CAATCTGAATTCCGGTCTCCC
# DNA 2: TGGTGGCTACGACGGGATT
# Target: T1, RBFOX1 RRM RbFoxmut (Fox-RRM*)
# Experiment: EMSA; HiTS-Eq, 1 nM pool, 10 min; buffer printed only for the single-RNA assays: 10 mM Tris pH 7.5, 150 mM NaCl, 3.4 mM EDTA, 0.001% NP-40, 30 C
# Conditions: tags: His6 N-terminal (pET28a); label: 5' 32P
# Procedure, shortened: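 Relative association constants, normalised to the cognate motif, were derived by comparing read counts of each RNA species with those of the control reaction. The RNA sequenced was the free fraction, separated by 8% native PAGE after a 10 min equilibration in 50 µL of 1 nM 5′-radiolabelled RNA (7 randomized nucleotides) with increasing concentrations of purified wild-type or mutant RbFox RRM.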
row,Binder,binding signal
1,B1,0.091 KA relative to UGCAUGU
2,B2,0.0896 KA relative to UGCAUGU
3,B3,0.0669 KA relative to UGCAUGU
4,B4,0.0858 KA relative to UGCAUGU
5,B5,0.117 KA relative to UGCAUGU
6,B6,0.098 KA relative to UGCAUGU
7,B7,0.0814 KA relative to UGCAUGU
8,B8,0.0473 KA relative to UGCAUGU
9,B9,0.0715 KA relative to UGCAUGU
10,B10,0.0608 KA relative to UGCAUGU
11,B11,0.135 KA relative to UGCAUGU
12,B12,0.102 KA relative to UGCAUGU
13,B13,0.0668 KA relative to UGCAUGU
14,B14,0.0696 KA relative to UGCAUGU
15,B15,0.0599 KA relative to UGCAUGU
16,B16,0.11 KA relative to UGCAUGU

row,Binder,binding signal
1,B17,0.117 KA relative to UGCAUGU
2,B18,0.0853 KA relative to UGCAUGU
3,B19,0.127 KA relative to UGCAUGU
4,B20,0.101 KA relative to UGCAUGU
5,B21,0.0468 KA relative to UGCAUGU
6,B22,0.11 KA relative to UGCAUGU
7,B23,0.174 KA relative to UGCAUGU
8,B24,0.133 KA relative to UGCAUGU
9,B25,0.0683 KA relative to UGCAUGU
10,B26,0.127 KA relative to UGCAUGU
11,B27,0.0548 KA relative to UGCAUGU
12,B28,0.112 KA relative to UGCAUGU
13,B29,0.0664 KA relative to UGCAUGU
14,B30,0.639 KA relative to UGCAUGU
15,B31,0.116 KA relative to UGCAUGU
